The source gives no read counts; variants with many changes may rest on few reads.
B1: LINE1-mini (parent)
chain: GGCAGAGCUCAACACAGCGUGGCAAAGUGGCUGUGGCUAGACUGCC

Variants of: B1
Test: self-cleavage, relative activity (ratio to wild type); higher = more cleavage; in vitro, sequencing; the parent is a self-cleaving ribozyme

Variant	self-cleavage
GGCAGAGCUCAGGACAGCGUGGCAAAGCGGCUGUGUCCAGUCUGCC [A12G C13G U28C G36U U38C A41U]	0.26
GACUGAGCUCAACACAGCGUUGCAAAGUGGCUGUGGCUAGACUGCC [G2A A4U G21U]	0.4
UGCAGAGCUCAUCACAGCGUGGCAACGUGGCUGUGGCUAGACUGCA [G1U A12U A26C C46A]	0.18
GGCAGAGCUCAAAACAGCGUGGCAAAGUGGCUGUCGCUAGCCUGCC [C13A G35C A41C]	0.03
GGCAGAGCUCAACACAUCGUGGCAAAAUGACUGUGGCUAGAUUGCC [G17U G27A G30A C42U]	0.23
GGCAGAGCUCAACACAGCGUGGCACGGUUGCUGUUGCUAGAGUGCC [A25C A26G G29U G35U C42G]	0.06
GGCAGAGCUCAACACAGCGUGGCAAAGUCGCUGUGGCUUGAAUGCC [G29C A39U C42A]	0
GGCAGAGAUCAACACAGCGUGGAAAAGUGGCUGUGGCUCGACUGCC [C8A C23A A39C]	1.39
CGCAGCGCUCAACACAGCGUGCCAAAGUGGCUGUGGCUAGACUGCG [G1C A6C G22C C46G]	0.12
GGGAGAGCUAAACACAGCUUGGCAAAGUGGCUGUGGCUAGACUGCC [C3G C10A G19U]	0.01
AACAGAUCUCAACACAUCGUGGCAAAGUGGCUGAGGCUAGACUGCC [G1A G2A G7U G17U U34A]	0.61
GGCAGAUCUCAACACAGCGUGGCAAAGACCCUCUGGCUAGACUGCC [G7U U28A G29C G30C G33C]	0.03
GGCACAGCUGAACACAGCGUGGCAAAGUGGCUUUGGGUAGACUGCC [G5C C10G G33U C37G]	0.02
GGCAGCGCUCAACACAGCGUUGCAUAGUGGCUGUGGCUAGACUGCC [A6C G21U A25U]	0.14
GGUAGAGCUCAACACAGUGUGGCAGACUGGCUGUGGCUAGACUGCC [C3U C18U A25G G27C]	0.04
CGGAGCGCUCAACACAGCGUGGCAAAGUGGGUGUGGGCAGACUGCC [G1C C3G A6C C31G C37G U38C]	0.01
GGCAGACCUCCACACAGCGUGGCAAAGUGGAUGUGGCUAGACUGCC [G7C A11C C31A]	0
GGCAGAUCUCAAGACAGCUUGGCAAAGUGGCUGUGGCUAGACUGCC [G7U C13G G19U]	0.13
GGUAGAGCUCAACAAAGCGUGGCAAAGCGGAUGUGGCGACACUGUC [C3U C15A U28C C31A U38G G40C C45U]	0.04

Variant	self-cleavage
GGCAGAGCUCAACACACAGUGGCAAAGUUGCUGUGGCUAGACUGCC [G17C C18A G29U]	0.05
GGCAGAUCUCAUCACAGCGUGGCAAAGUGGCAGUGGCUAGACUGCC [G7U A12U U32A]	0.03
GGCAGAGCUCAACACAGCGUCGCAAAAUGGCUGUGGCUGGACUGCC [G21C G27A A39G]	0.06
GGCAGAGCUCAACACAGCGUGUCCACGUGGCUUUGGCUAGACUGCC [G22U A24C A26C G33U]	0.1
GGCAGAGCUCAUCACAGCGUGGCAAACUGGCUGUGGCUAGACUGCA [A12U G27C C46A]	0.03
GGCAGAGCUCAUCACGGCGUGGCACAGUGGCUGUGACUAGACUGCC [A12U A16G A25C G36A]	0.01
GGCAGAGUUCAACACAGCCUGGCAAAUUGGCUGUGGCUAGACUGCU [C8U G19C G27U C46U]	0.35
GGCAGAGCUAAACACAGCCUUGCAAAGUGGCUAUGGCUAGACUGCC [C10A G19C G21U G33A]	0.03
GGCAGAGCUCAACACAGCGUGGCAAAGUGGGUGGGGGUAGAAUGCC [C31G U34G C37G C42A]	0.02
GGCAGAGCUCAACCCAGCGUGCCAAAGAGGCUGUGGCUAGACUGCC [A14C G22C U28A]	0.1
GGCAGAGCUCUACACAGCGUCGCCCAGUGGCUGUGGCUAUACUGCC [A11U G21C A24C A25C G40U]	0.01
GGCAGAGCUCAACACAGCGUGGCACAGUACCUGUGGCUAGACUGCC [A25C G29A G30C]	1.3
GGCAGAGCUCACCACAGCGUGGCGAAGUUGCUGUGGCUAGACUGCC [A12C A24G G29U]	0.01
GGCAGAGCUCAACACAGCGUGGCAAAGUUGCUGUGGGUAAACUGCC [G29U C37G G40A]	0.1
GGCAGAGCUCUACACAGCGGUGCAAAGUGGCUGUGGUUAGACUGCC [A11U U20G G21U C37U]	0
GGCAGUGCUCAACACGGCGAGGCAAAGUGGCUGUGGCUAGACUGCC [A6U A16G U20A]	0.44
GGCAGAGCUCAACAUAGCGUCGCAAAGUGGCAGUGGCUAGACUGCC [C15U G21C U32A]	0.03
GGCGUAGCUCAACACAGCGUGGCAAAGUGGCUAUGGCUAGACUGCC [A4G G5U G33A]	0.03
GGGAGAGCUCCACACAGCGUGGCAAAUUGACUGUGGCUAGAGUUCC [C3G A11C G27U G30A C42G G44U]	0.01

Variant	self-cleavage
GUCAGAGCUCAACACAGCGUGGCGAAGUGGCUGUGACUAAACAGUC [G2U A24G G36A G40A U43A C45U]	0.02
GGCAGAGCUCACCACAGCGUGGCAAAGCGGCUGUGACUAUAGUGCC [A12C U28C G36A G40U C42G]	0.2
GGCAGAGAUCAACACUGCGUGGCAAAGUGUCUGUGGCUAGACUGCC [C8A A16U G30U]	0.24
GGCAGAGCUCCACACAGCGAGGCAAAGUGGCUGUGGCUCGACUGCC [A11C U20A A39C]	0.01
GGCAGAGCUCAACACAGCGUGGCAAAGUGCCUGUGGCUCGACUGAC [G30C A39C C45A]	0.11
GUCAGAGCUCAACACAGCGUGGCAAUGUGGCUCUGGCUAGACUGCC [G2U A26U G33C]	0.01
GGCAGAGCUCAAAACAGCGUGGCAAAAUGGCUGUGGCUAGACUGGC [C13A G27A C45G]	0.09
GGCAUAGCUCGACACAGCGGGGCAAAGUGGCUGUGGCUAGACUGCC [G5U A11G U20G]	0.03
GGCAGAGCUCUACACAGCGUGGCAAAGUGGCCGUGGCUAGCCUGCC [A11U U32C A41C]	0.03
GGCAAAGCACAACAAAGCGUGGCAAAGUGGCUGUGGCUAGACUCGC [G5A U9A C15A G44C C45G]	0.06
GCCAGAGCUCAACACAGCGUGGCAACCAGGCUGUCGCUAGACUGCC [G2C A26C G27C U28A G35C]	0.03
GGCAGAGCUUAACACAGCGUGACAGAGUGGCUGUGGCUAGGCUGCC [C10U G22A A25G A41G]	0.01
GGCAUAGCUCAACACUGCGUGGCAAUGGGGCUGUGGCUAGACUGCC [G5U A16U A26U U28G]	0.02
GGCAGAGCUCAACACAGAGUGGCAAAGUGGCGGUGGCUAGACUCCC [C18A U32G G44C]	0.03
GGCAGAGGUCAACACAGCGUUGCAAAGUGGCUGUAGCUAGACUGUC [C8G G21U G35A C45U]	0.06
CCCAGAGCUCAACACAGCCUGGCAAAGUGGCAGGGGCUAGGCUGCC [G1C G2C G19C U32A U34G A41G]	0
GUCAGAGCUCAACACAGCGGGUCAAUGUGGCUGUGGCUAGAAUCCC [G2U U20G G22U A26U C42A G44C]	0.04
GACAGAGCUAAACACAGCGAGGUAAAGUGGCUGUGGCUAGACUGUC [G2A C10A U20A C23U C45U]	0.1

From the RNAGym collection of RNA variant scans (doi:10.7554/elife.90254)
